# Data taken from article PMC9911399, “Two distinct binding modes provide the RNA-binding protein RbFox with extraordinary sequence specificity”.
# Numbering of substitutions follows the chain as printed; changes in the protein carry UniProt numbers. The list shows a part of the results.
# T1: RBFOX1 RRM (Homo sapiens, UniProt Q9NWB1 109-208)
# T1 sequence: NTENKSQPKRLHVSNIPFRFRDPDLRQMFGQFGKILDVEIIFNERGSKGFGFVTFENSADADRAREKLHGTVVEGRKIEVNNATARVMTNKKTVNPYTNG
# B1: GAGAGCG (DNA:RNA)
# RNA: GGGAGACCGGAAUUCAGAUUGUCCGAGAGCGUUAAAUCCCGUCGUAGCCACCA
# DNA 1: CAATCTGAATTCCGGTCTCCC
# DNA 2: TGGTGGCTACGACGGGATT
# B2: CCUUUGG (DNA:RNA)
# RNA: B1 RNA with G25C, A26C, G27U, A28U, G29U, C30G
# DNA 1: CAATCTGAATTCCGGTCTCCC
# DNA 2: TGGTGGCTACGACGGGATT
# B3: GACUUCC (DNA:RNA)
# RNA: B1 RNA with G27C, A28U, G29U, G31C
# DNA 1: CAATCTGAATTCCGGTCTCCC
# DNA 2: TGGTGGCTACGACGGGATT
# B4: AUAUUGA (DNA:RNA)
# RNA: GGGAGACCGGAAUUCAGAUUGUCCAUAUUGAUUAAAUCCCGUCGUAGCCACCA
# DNA 1: CAATCTGAATTCCGGTCTCCC
# DNA 2: TGGTGGCTACGACGGGATT
# B5: GCGGACG (DNA:RNA)
# RNA: B1 RNA with A26C, A28G, G29A
# DNA 1: CAATCTGAATTCCGGTCTCCC
# DNA 2: TGGTGGCTACGACGGGATT
# B6: UGGCAGU (DNA:RNA)
# RNA: B4 RNA with A25U, U26G, A27G, U28C, U29A, A31U
# DNA 1: CAATCTGAATTCCGGTCTCCC
# DNA 2: TGGTGGCTACGACGGGATT
# B7: CUCUUAA (DNA:RNA)
# RNA: B4 RNA with A25C, A27C, G30A
# DNA 1: CAATCTGAATTCCGGTCTCCC
# DNA 2: TGGTGGCTACGACGGGATT
# B8: AGUUAUU (DNA:RNA)
# RNA: B4 RNA with U26G, A27U, U29A, G30U, A31U
# DNA 1: CAATCTGAATTCCGGTCTCCC
# DNA 2: TGGTGGCTACGACGGGATT
# B9: ACAACUA (DNA:RNA)
# RNA: B4 RNA with U26C, U28A, U29C, G30U
# DNA 1: CAATCTGAATTCCGGTCTCCC
# DNA 2: TGGTGGCTACGACGGGATT
# B10: GAACGAA (DNA:RNA)
# RNA: B1 RNA with G27A, A28C, C30A, G31A
# DNA 1: CAATCTGAATTCCGGTCTCCC
# DNA 2: TGGTGGCTACGACGGGATT
# B11: GGGACUG (DNA:RNA)
# RNA: B1 RNA with A26G, G29C, C30U
# DNA 1: CAATCTGAATTCCGGTCTCCC
# DNA 2: TGGTGGCTACGACGGGATT
# B12: CCCAAUG (DNA:RNA)
# RNA: B1 RNA with G25C, A26C, G27C, G29A, C30U
# DNA 1: CAATCTGAATTCCGGTCTCCC
# DNA 2: TGGTGGCTACGACGGGATT
# B13: UUAGUCG (DNA:RNA)
# RNA: B4 RNA with A25U, U28G, G30C, A31G
# DNA 1: CAATCTGAATTCCGGTCTCCC
# DNA 2: TGGTGGCTACGACGGGATT
# B14: UUGAGUC (DNA:RNA)
# RNA: B1 RNA with G25U, A26U, C30U, G31C
# DNA 1: CAATCTGAATTCCGGTCTCCC
# DNA 2: TGGTGGCTACGACGGGATT
# B15: CCAAUAU (DNA:RNA)
# RNA: B4 RNA with A25C, U26C, U28A, G30A, A31U
# DNA 1: CAATCTGAATTCCGGTCTCCC
# DNA 2: TGGTGGCTACGACGGGATT
# B16: GCAAGUU (DNA:RNA)
# RNA: B1 RNA with A26C, G27A, C30U, G31U
# DNA 1: CAATCTGAATTCCGGTCTCCC
# DNA 2: TGGTGGCTACGACGGGATT
# B17: GGACCGG (DNA:RNA)
# RNA: B4 RNA with A25G, U26G, U28C, U29C, A31G
# DNA 1: CAATCTGAATTCCGGTCTCCC
# DNA 2: TGGTGGCTACGACGGGATT
# B18: GGCUGCU (DNA:RNA)
# RNA: B1 RNA with A26G, G27C, A28U, G31U
# DNA 1: CAATCTGAATTCCGGTCTCCC
# DNA 2: TGGTGGCTACGACGGGATT
# B19: GGGGUAC (DNA:RNA)
# RNA: B1 RNA with A26G, A28G, G29U, C30A, G31C
# DNA 1: CAATCTGAATTCCGGTCTCCC
# DNA 2: TGGTGGCTACGACGGGATT
# B20: UAUGCCG (DNA:RNA)
# RNA: B1 RNA with G25U, G27U, A28G, G29C
# DNA 1: CAATCTGAATTCCGGTCTCCC
# DNA 2: TGGTGGCTACGACGGGATT
# Target: T1, RBFOX1 RRM
# Experiment: EMSA; HiTS-Eq, 1 nM pool, 10 min; buffer printed only for the single-RNA assays: 10 mM Tris pH 7.5, 150 mM NaCl, 3.4 mM EDTA, 0.001% NP-40, 30 C
# Settings: tags: His6 N-terminal (pET28a); label: 5' 32P
# How it was run: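 Relative association constants, normalised to the cognate motif, were derived by comparing read counts of each RNA species with those of the control reaction. The RNA sequenced was the free fraction, separated by 8% native PAGE after a 10 min equilibration in 50 µL of 1 nM 5′-radiolabelled RNA (7 randomized nucleotides) with increasing concentrations of purified wild-type or mutant RbFox RRM.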
row,Binder,binding signal
1,B1,0.0158 KA relative to UGCAUGU
2,B2,0.0198 KA relative to UGCAUGU
3,B3,0.0102 KA relative to UGCAUGU
4,B4,0.00736 KA relative to UGCAUGU
5,B5,0.0085 KA relative to UGCAUGU
6,B6,0.0192 KA relative to UGCAUGU
7,B7,0.00101 KA relative to UGCAUGU
8,B8,0.00441 KA relative to UGCAUGU
9,B9,0.000157 KA relative to UGCAUGU
10,B10,0.0149 KA relative to UGCAUGU
11,B11,0.0322 KA relative to UGCAUGU
12,B12,0.016 KA relative to UGCAUGU
13,B13,0.0165 KA relative to UGCAUGU
14,B14,0.0173 KA relative to UGCAUGU
15,B15,0.00142 KA relative to UGCAUGU
16,B16,0.0128 KA relative to UGCAUGU
17,B17,0.014 KA relative to UGCAUGU
18,B18,0.0226 KA relative to UGCAUGU
19,B19,0.0356 KA relative to UGCAUGU
20,B20,0.014 KA relative to UGCAUGU
